Experimental data: PubChem BioAssay AID488969 (Vanderbilt High Throughput Screening Facility, 2010)
The full ranking holds about 110,000 compounds; the median of “z-score” is about -0.1, and the highest 2% start at about 2. The list shows a part of the results. Calls of active or inactive are those of the source.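 Rule for the calls: active = z-score in the third read window above 3 or below -3; inactive = the rest.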

These compounds were tested against Metabotropic glutamate receptor 8 (Rattus norvegicus) (UniProt P70579) (assay: mGluR8 Gi/Go-coupled signaling modulation – cell-based, rat, thallium flux, HTS, primary screen (AID 488969)). Conditions: HEK293 rat mGluR8, GIRK (G protein-gated inwardly rectifying potassium channel) thallium flux, FluoZin2; at 10 µM; stronger effect = higher value; submaximal glutamate (EC20) added with thallium.
UniProt P70579, sequence (P70579 whole entry, looked up): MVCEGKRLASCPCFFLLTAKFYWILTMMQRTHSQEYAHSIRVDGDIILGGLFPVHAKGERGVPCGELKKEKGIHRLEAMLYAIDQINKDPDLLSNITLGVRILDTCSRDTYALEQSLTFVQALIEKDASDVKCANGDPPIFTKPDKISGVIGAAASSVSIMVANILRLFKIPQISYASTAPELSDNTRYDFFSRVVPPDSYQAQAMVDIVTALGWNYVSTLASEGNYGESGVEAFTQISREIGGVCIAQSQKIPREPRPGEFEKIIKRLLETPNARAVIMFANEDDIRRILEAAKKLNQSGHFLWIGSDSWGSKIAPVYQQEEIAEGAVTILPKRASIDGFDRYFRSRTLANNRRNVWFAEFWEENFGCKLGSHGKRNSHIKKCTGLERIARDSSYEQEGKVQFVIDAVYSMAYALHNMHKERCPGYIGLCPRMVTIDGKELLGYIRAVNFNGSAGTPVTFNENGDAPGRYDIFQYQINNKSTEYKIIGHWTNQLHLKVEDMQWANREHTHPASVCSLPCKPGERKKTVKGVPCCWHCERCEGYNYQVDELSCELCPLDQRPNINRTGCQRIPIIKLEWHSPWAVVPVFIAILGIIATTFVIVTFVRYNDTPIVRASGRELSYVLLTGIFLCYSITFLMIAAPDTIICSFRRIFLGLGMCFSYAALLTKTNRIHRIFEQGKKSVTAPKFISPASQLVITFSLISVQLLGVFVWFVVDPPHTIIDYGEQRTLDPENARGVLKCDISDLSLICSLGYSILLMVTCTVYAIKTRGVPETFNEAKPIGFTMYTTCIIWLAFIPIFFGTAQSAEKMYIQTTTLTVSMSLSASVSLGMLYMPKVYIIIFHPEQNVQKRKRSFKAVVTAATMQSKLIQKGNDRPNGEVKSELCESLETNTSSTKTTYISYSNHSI
Work on `CC1(C)C2([N+](=O)[O-])CN(CCO)CC1([N+](=O)[O-])CN(CCO)C2` yielded a z-score of -0.161.
In the case of `COc1ccc(C(=O)Nc2cc3c(cc2C#N)OCO3)cc1S(=O)(=O)NCc1ccco1`, the z-score is reported as 0.147.
Compound `Cc1cccc2c1NC(=O)/C2=C\C(=O)c1cccs1` has a z-score of 0.0938.
`CS(=O)(=O)N(Cc1ccccc1)c1ccc(C(=O)Nc2cccnc2)cc1` gave a z-score of 0.0978.
In the case of `Cn1nc(OC(=O)Nc2cccc(Cl)c2)cc1C(F)(F)F`, the z-score is reported as 0.674.
`CCOC(=O)Cc1cnc(NC(=O)NC(C(=O)OCC)(c2ccccc2)C(F)(F)F)s1` (stereo not drawn) showed a z-score of -1.01.
With `Cc1cccc(OCC(=O)N2CCN(C(=O)Cc3ccccc3)CC2)c1` the z-score was 0.121.
For `CCc1n[nH]c(=S)n1/N=C/c1ccc2c(c1)OCO2`, the z-score was 0.512.
`CS(=O)(=O)N(CC(=O)N1CCN(c2ccccc2F)CC1)c1cccc(C(F)(F)F)c1` was tested, and the z-score was 0.48.
`c1ccc2c(-c3nc(-c4ccncc4)no3)cccc2c1` showed a z-score of -0.386.
In the case of `COc1ccc(OCc2nn3c(-c4cccc(OC)c4)nnc3s2)cc1`, the z-score is reported as -0.159.
Compound `CC(C)N(C(=O)CSc1nc2ccccc2n1Cc1ccccc1F)C(C)C` has a z-score of -0.509.
In the case of `Cc1ccc(S(=O)(=O)N2CCC(C(=O)NCc3cccnc3)CC2)cc1`, the z-score is reported as -0.0997.
`CCOC(=O)c1sc(SC)c(C(C)=O)c1C` showed a z-score of -0.429.
`Cc1cc(NC(=O)c2ccc(N3C(=O)CCC3=O)cc2)no1` showed a z-score of 0.412.
In the case of `COc1nc(Nc2ccc(C(C)C)cc2)nc(OC)n1`, the z-score is reported as -0.553.
For `CCc1nnc(NS(=O)(=O)c2ccc(N/C=C\C(=O)c3ccc(C)cc3)cc2)s1`, the z-score was -0.133.
For `Cc1cc(C)cc(Nc2cc(C)nc3nc(C)nn23)c1`, the z-score was 0.398.
For `Cc1oc(/N=C/c2ccc3c(c2)OCO3)c(C#N)c1C`, the z-score was 1.4.
`CN(C)c1ccc(NS(=O)(=O)c2cc(Cl)ccc2Cl)cc1` showed a z-score of -0.322.
With `Cc1sc(N/N=C/c2cccs2)nc1-c1ccccc1` the z-score was 0.0575.
`O=S(=O)(Cc1ccc(Cl)cc1)c1ccccc1-c1nnc(-c2ccc(Cl)cc2)o1` was tested, and the z-score was -0.0549.
Compound `O=S(=O)(O)c1nc2ccccc2n1Cc1ccc(Cl)cc1Cl` has a z-score of 0.25.
For `Cc1ccccc1C(=O)Nc1cc(S(=O)(=O)N2CCCCC2)ccc1N1CCN(C)CC1`, the z-score was 0.00679.
Work on `CC1CCN(c2oc(-c3cccc4ccccc34)nc2C#N)CC1` yielded a z-score of 0.305.
For `Cc1cc(NC(=O)c2cc(C)on2)no1`, the z-score was 0.372.
`Cn1c(SCC(=O)NCc2ccc3c(c2)OCO3)nc2scc(-c3cccs3)c2c1=O` showed a z-score of -0.911.
`COc1ccc(CCNC(=O)C2CC(c3ccc([N+](=O)[O-])cc3)=NO2)cc1` (stereo not drawn) gave a z-score of -0.16.
Compound `Cc1cc(C(=O)NC(C)c2ccc3c(c2)OCO3)cs1` (stereo not drawn) has a z-score of 0.0632.
With `CC(C)(C)C(=O)C(Cc1ccccc1)n1cncn1` (stereo not drawn) the z-score was 0.606.
Work on `Cc1cc(C(=O)CN2C(=O)NC(C)(c3ccccc3)C2=O)c(C)n1CC1CCCO1` (stereo not drawn) yielded a z-score of 1.28.
`O=C(CN1CCN(c2ncc(C(F)(F)F)cc2Cl)CC1)NCCNc1ncc(C(F)(F)F)cc1Cl` gave a z-score of -0.0224.
`Cc1ccc(N2C(=O)c3ccc(C(=O)NCCN4CCOCC4)cc3C2=O)cc1` showed a z-score of 0.0183.
Compound `CCOc1ccc(NC(=O)CCN2CCN(S(=O)(=O)c3ccc(Cl)cc3)CC2)cc1` has a z-score of -0.361.
`COc1ccccc1NC(=O)CN1C(=O)C(C)SC(C)C1=O` (stereo not drawn) was tested, and the z-score was -0.296.
`CCOc1ccc(/C(O)=C2/C(=O)C(=O)N(c3nc(C)c(C)s3)C2c2ccco2)cc1` (stereo not drawn) showed a z-score of -1.12.
`CN(C)CCN1C(=O)C(=O)/C(=C(/O)c2ccc(OCc3ccccc3)cc2)C1c1ccncc1` (stereo not drawn) gave a z-score of -0.382.
In the case of `COc1ccc(CNC(=O)c2ccc(SC)cc2OC)cc1`, the z-score is reported as -0.295.
Compound `O=C(NC1CCCCC1)n1c(=O)oc2cc(S(=O)(=O)N3CCCCC3)ccc21` has a z-score of 0.357.
With `COCCOC(=O)C1=C(C)NC2=C(C(=O)CC(C)(C)C2)C1c1ccc2c(c1)OCO2` (stereo not drawn) the z-score was -0.115.
Compound `CCOC(=O)c1c(-n2cnnn2)sc(C)c1C` has a z-score of 0.69.
`O=C(C1CCCN(S(=O)(=O)c2cccs2)C1)N1CCc2ccccc2C1` (stereo not drawn) showed a z-score of -0.502.
In the case of `O=C(Nn1cnnc1)c1cc([N+](=O)[O-])cc([N+](=O)[O-])c1`, the z-score is reported as -0.286.
`CCN(C(=O)CSc1nnc(Nc2ccccc2C)s1)C1CCS(=O)(=O)C1` (stereo not drawn) showed a z-score of -0.257.
For `N#CC1=C(N)Oc2n[nH]c(CSc3ccccc3)c2C12C(=O)Nc1ccccc12` (stereo not drawn), the z-score was -0.485.
`COc1ccc([N+](=O)[O-])cc1NCc1ccccc1C` showed a z-score of -0.176.
`O=S(=O)(NCc1cn2ccsc2n1)c1ccc2c(c1)OCCO2` showed a z-score of -0.0846.
`CC1(C)NC(=O)N(CCOCCOc2c(Cl)cc(Cl)cc2Cl)C1=O` showed a z-score of -0.413.
With `Cc1cccc(-n2c(C)cc(/C=N/NC(=O)c3ccc(CN4CCOCC4)cc3)c2C)c1` the z-score was 0.529.
For `COC(=O)CSc1nnc(CNC(=O)Cc2ccccc2)n1-c1ccccc1OC`, the z-score was -0.273.
With `C/C(=N\Nc1nc2ccccc2[nH]1)c1ccc(C)o1` the z-score was -0.539.
`CCOC(=O)c1ccc(NS(=O)(=O)c2ccc3c(c2)CCCN3C(C)=O)cc1` gave a z-score of 0.0549.
Work on `C=CCNC(=O)c1ccc(N(C)S(=O)(=O)c2ccc(OC)cc2)cc1` yielded a z-score of 0.0482.
`COCCN1C(=O)c2ccccc2C(C(=O)NCC2CCCO2)C1c1c[nH]c2ccccc12` (stereo not drawn) gave a z-score of -0.121.
`Cc1n[nH]c(=O)n1-c1cccc(C(F)(F)F)c1` showed a z-score of -0.651.
`Cc1ccc(/C(O)=C2/C(=O)C(=O)N(CCN3CCOCC3)C2c2cccs2)cc1` (stereo not drawn) showed a z-score of -0.157.
`Cc1ccccc1C(=O)NC(=S)NCCc1ccccc1` was tested, and the z-score was active: 6.68.
`CCN1CCN(CC(O)COc2ccc(Cl)cc2)CC1` (stereo not drawn) showed a z-score of -0.424.
With `Cc1cc2c(N=NC(=O)CCc3ccccc3)c(O)[nH]c2cc1Br` the z-score was 0.474.
Compound `Cc1cccc(N/C=C/C(=O)c2cccs2)c1C` has a z-score of -0.185.
`Cc1cc(C)n(-c2ccc(C(=O)Nc3nnc(C4CC4)s3)cc2)n1` gave a z-score of 0.129.
`Cc1cc(=O)[nH]c(SCC(=O)Nc2ccc(C(=O)O)cc2)n1` was tested, and the z-score was 0.46.
`O=C(C/C=N/OCc1ccccc1F)c1cnc(-c2ccc(Cl)cc2)s1` showed a z-score of -0.147.
With `COc1cccc(C(=O)NNC(=O)Cc2ccc([N+](=O)[O-])cc2)c1` the z-score was -0.123.
`O=C(NC(NC(=O)c1ccccc1)c1ccccc1)c1ccccc1` was tested, and the z-score was -0.164.
Compound `O=C(CCn1nnc2ccccc2c1=O)N[C@H](C(=O)O)c1ccccc1` has a z-score of -1.23.
`COC(=O)C1=C(C(=O)c2ccc(C)cc2)C(c2ccccc2)n2nnnc2N1` (stereo not drawn) showed a z-score of 0.991.
For `CCOc1ccc(NC(=O)CCC(=O)c2ccc(-c3ccccc3)cc2)cc1`, the z-score was -1.21.
`O=C(Nc1ccc(NC(=O)C23CC4CC(CC(C4)C2)C3)cc1)c1cc(F)c(F)cc1Cl` was tested, and the z-score was -0.315.
Compound `CCOC(=O)C(CCCOc1ccccc1C)C(=O)OCC` has a z-score of 0.000651.
`Cc1ccc(NC(=O)CSc2nc3c(c(=O)[nH]2)CCC3)cc1C` gave a z-score of -0.406.
`COC(=O)CN(c1ccccc1)S(=O)(=O)c1ccc(F)cc1` showed a z-score of -0.167.
For `CCOC(=O)/C(C(N)=NC(C)C)=C(\O)c1ccccc1`, the z-score was 0.0345.
`Cc1cc2oc(C(=O)N(Cc3ccccc3)C3CCS(=O)(=O)C3)cc(=O)c2cc1Cl` (stereo not drawn) was tested, and the z-score was -0.141.
Work on `O=C(NCc1ccc(N2CCCC2=O)cc1)Nc1cccc(Cl)c1` yielded a z-score of 0.0224.
`O=C(c1cccs1)n1nc(-c2ccccc2)nc1NCc1ccc(F)cc1` showed a z-score of 0.00719.
`Cc1ccc2nc(C)c(Cl)c(=O)n2c1` was tested, and the z-score was 0.00417.
Compound `COc1ccc(C(=O)N(CC2CCCO2)C(C(=O)NCCC(C)C)c2ccc(C)cc2)cc1OC` (stereo not drawn) has a z-score of -0.0543.
`O=C(CNCC1CCCO1)Nc1ccccc1-n1cccc1` (stereo not drawn) showed a z-score of 0.0521.
In the case of `COC(=O)c1cc(OC)c(OC)cc1NC(=O)c1ccc(C)cc1`, the z-score is reported as -0.296.
`CC1(c2ccco2)NC(=O)NC1=O` (stereo not drawn) was tested, and the z-score was 0.122.
`Cc1ccc(NC(=S)NCc2ccccc2Cl)c(C)c1` showed a z-score of -0.0423.
With `O=C(COc1cccnc1[N+](=O)[O-])N1CCN(S(=O)(=O)c2ccc3ccccc3c2)CC1` the z-score was -0.206.
`CCOC(=O)NC1(C(F)(F)F)NC(=O)N(C2CCCCC2)C1=O` (stereo not drawn) gave a z-score of 2.9.
With `O=C(C1=C(O)C(=O)N(Cc2ccco2)C1c1ccccc1)c1cccs1` (stereo not drawn) the z-score was -0.817.
In the case of `OCCCn1c(-c2ccccc2)nc(=S)c2c1CCCC2`, the z-score is reported as -0.0555.
`COc1ccc(Cn2c(O)c(C=Nc3ccc(O)cc3)c3ccccc3c2=O)cc1` showed a z-score of 0.122.
Compound `COC(=O)CNS(=O)(=O)c1ccc(Cc2ccc(S(=O)(=O)NCC(=O)OC)cc2)cc1` has a z-score of -0.0451.
`O=C(O)CNC(=O)CC12CC3CC(CC(C3)C1)C2` gave a z-score of -0.191.
Compound `Cc1cc(C)cc(N2CN=c3s/c(=C\c4ccco4)c(=O)n3C2)c1` has a z-score of -0.0387.
In the case of `Cc1ccc(NC(=O)CN(C)C(=O)CCOc2ccccc2C)cc1`, the z-score is reported as 1.66.
Work on `COCCn1nc2cc(C(=O)NCc3cc(C(F)(F)F)cc(C(F)(F)F)c3)ccc2c1OC` yielded a z-score of -0.159.
With `CCCN(CCC)c1nc(N)nc(-c2cc(Cl)ccc2OC)n1` the z-score was -0.195.
Work on `CCC1(CC)C(=O)N(C)C(=O)NC1=Nc1ccc(OC)cc1` yielded a z-score of 0.156.
`CC1(C)C(=O)C2(C(=O)NCc3ccccc3)CCC1C2` (stereo not drawn) gave a z-score of -0.176.
Compound `COc1ccc(OC)c(NC(=O)COC(=O)c2c3c(nc4ccccc24)CCCC3)c1` has a z-score of 0.0716.
With `O=C1Nc2ccccc2C1(O)Cc1ccncc1` (stereo not drawn) the z-score was -0.322.
With `COc1ccc(NC(=O)c2cccc(S(=O)(=O)N(C)c3ccccc3)c2)cn1` the z-score was -0.426.
In the case of `CCOc1ccc(C(C(=O)NC2CCCCC2)N(C(=O)Cc2cccs2)c2ccc(-n3cnnn3)c(OC)c2)cc1` (stereo not drawn), the z-score is reported as -0.304.
For `CN1CCN(S(=O)(=O)c2ccc3c(c2)OCCO3)CC1`, the z-score was -0.129.
Compound `COCCCn1cc(C(=O)c2cc(OC)ccc2OCC(=O)Nc2cc(C)on2)cc(C#N)c1=O` has a z-score of -0.0248.
Compound `O=C(c1ccc([N+](=O)[O-])cc1)N(Cc1ccc(Br)cc1)N1C(=O)CCCC1=O` has a z-score of -1.21.
`C=C(C)Cn1c(=O)c(NC(=O)c2ccccc2)c2n(c1=S)CCC2` gave a z-score of -0.467.
`COc1ccc(CCCC(=O)Nc2ccc(F)cc2)cc1` gave a z-score of -1.57.
In the case of `O=C(O)C1CCCCC1C(=O)NCCCn1ccnc1` (stereo not drawn), the z-score is reported as -0.0282.
For `N#Cc1cc(-c2ccccc2)nn1-c1ccccc1`, the z-score was -0.202.
`CCOC(=O)C1CCN(C(=O)CCCCn2c(=O)[nH]c3ccccc3c2=O)CC1` gave a z-score of -0.985.
`CC(=O)N=C(N)Sc1nc2ccccc2[nH]1` was tested, and the z-score was -0.0311.
